From PMC6919601, “Identification of Plasmodium dipeptidyl aminopeptidase allosteric inhibitors by high throughput screening” (PLoS ONE, 2019) come the findings set out here.

Molecules are shown by their SMILES. In all, about 110,000 compounds went through this assay and about 230 (0.21%) showed an effect of 50% or more. Some of the results follow.
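Note: 30 min substrate incubation versus DMSO and 10 µM JCP410 controls.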

The target in this test is DPAP1 (Plasmodium falciparum, UniProt Q8IIJ9). Put plainly: primary screen, percent inhibition; read by cleavage of a fluorogenic dipeptide substrate; higher = more effect of the substance. Also noted: species or system P. falciparum D10 trophozoite lysates; single well.
Sequence of DPAP1 (Q8IIJ9 whole entry, looked up): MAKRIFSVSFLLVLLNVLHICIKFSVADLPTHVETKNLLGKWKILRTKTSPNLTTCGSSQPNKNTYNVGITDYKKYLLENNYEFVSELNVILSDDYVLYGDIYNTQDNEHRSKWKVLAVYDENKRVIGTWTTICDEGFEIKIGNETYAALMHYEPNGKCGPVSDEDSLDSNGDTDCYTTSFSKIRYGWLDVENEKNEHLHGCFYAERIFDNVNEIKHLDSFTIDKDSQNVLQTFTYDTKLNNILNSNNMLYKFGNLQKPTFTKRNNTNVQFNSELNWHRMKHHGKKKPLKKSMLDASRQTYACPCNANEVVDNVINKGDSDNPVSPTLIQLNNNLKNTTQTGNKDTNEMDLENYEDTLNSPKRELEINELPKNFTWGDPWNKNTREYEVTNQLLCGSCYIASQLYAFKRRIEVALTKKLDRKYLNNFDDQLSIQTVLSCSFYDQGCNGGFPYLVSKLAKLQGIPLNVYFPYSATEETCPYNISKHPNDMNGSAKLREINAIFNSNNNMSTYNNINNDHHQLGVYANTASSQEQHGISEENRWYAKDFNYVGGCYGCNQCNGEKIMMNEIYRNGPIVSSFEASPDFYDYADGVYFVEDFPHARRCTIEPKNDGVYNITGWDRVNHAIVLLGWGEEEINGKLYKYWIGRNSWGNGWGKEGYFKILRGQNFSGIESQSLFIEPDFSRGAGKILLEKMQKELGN
As to `Cc1cccc(CN2C(=O)N/C(=C/c3ccc(C)s3)C2=O)c1`, the “% Inhibition @ 10 uM” value is recorded as -12.5%. As for `Clc1cccc(N2CCN(Cc3ccc(-c4ccccc4)cc3)CC2)c1`, the “% Inhibition @ 10 uM” value is given as -5.41%. Regarding `Cc1c2cnn(CC(=O)N3CCN(Cc4ccccc4)CC3)c(=O)c2c(C)n1Cc1ccccc1`, the “% Inhibition @ 10 uM” value is given as -3.96%. Next, `Cc1cccc2c1OCc1nc3ccccc3cc1C2=O`: 4.94%; `CCOC(=O)N1CCc2c(sc3c2c(=O)n(Cc2ccccc2)c(=O)n3CC(=O)NC(C)CC)C1` (centres unmarked): 3.59%; `CC(=O)Nc1n[nH]c(-c2ccncc2)n1`: -7.39%. Consider `CC(NC(=O)/C(=C\C=C\c1ccccc1)NC(=O)c1cccc(Br)c1)C(=O)O` (centres unmarked), for which the “% Inhibition @ 10 uM” value was -2.87%. On to `COc1ccccc1N(CC(=O)N1CCC(C)CC1)S(=O)(=O)c1ccccc1`, for which the “% Inhibition @ 10 uM” value was -2.83%.

For the molecule `Cc1nn2c(O)c3c(nc2c1-c1ccc(Cl)cc1)CCC3`, the “% Inhibition @ 10 uM” value is reported as -0.267%. As to `O=C(NCCCN1CCc2ccccc2C1)c1cc2c(s1)CS(=O)(=O)C2`, the “% Inhibition @ 10 uM” value is listed as -1.85%. Turning to `C#CCOC(=O)CCC(=O)Nc1cccc2ccccc12`, the “% Inhibition @ 10 uM” value is -1.8%.

As to `O=S1(=O)C(/C=N/c2ccccn2)=C(O)c2sccc2N1Cc1cccc(F)c1`, the “% Inhibition @ 10 uM” value turned out to be 4.44%. Take `COc1ccc(Cl)cc1/C=C(/C#N)C(=O)Nc1ccc(Cl)cc1`: the “% Inhibition @ 10 uM” value is listed as 6.81%.

Turning to `Cc1oc(-c2cccs2)nc1CSCC(=O)NCCc1ccc(Cl)cc1`, the “% Inhibition @ 10 uM” value is -4.71%. Regarding `COc1ccc(-c2cc3c(=O)n(CC(=O)NC4CCCc5ccccc54)ncn3n2)cc1` (centres unmarked), the “% Inhibition @ 10 uM” value is recorded as -3.08%. In the case of `CN1CCC(NC23CC4CC(CC(C4)C2)C3)CC1`, the “% Inhibition @ 10 uM” value is given as 3.68%. On to `CCN1CC=C(c2c[nH]c3ccccc23)CC1`, for which the “% Inhibition @ 10 uM” value came out at 4.79%.

Take `COc1ccc(OC)c(C2CC(c3c(O)cc(C)oc3=O)=NCCS2)c1` (centres unmarked): the “% Inhibition @ 10 uM” value was 3.31%. Turning to `COc1ccc(-c2noc(CN(C(=O)/C=C/c3ccccc3)C(C)C)n2)cc1`, the “% Inhibition @ 10 uM” value is recorded as -4.03%.

As for `Cc1cc(C)n(-c2ccc3cccc(O)c3n2)n1`, the “% Inhibition @ 10 uM” value came out at 1.9%.

Consider `C=CCNC(=O)c1ccccc1NC(=O)CSCc1ccc(C)cc1`, for which the “% Inhibition @ 10 uM” value is on record as -10.2%. In the case of `CN(CCC#N)S(=O)(=O)c1ccc2ncc(C(=O)N(Cc3ccco3)CC3CCCO3)c(O)c2c1` (centres unmarked), the “% Inhibition @ 10 uM” value is recorded as -5.03%. On to `Cc1ccc(-c2nc3ccccc3nc2N2CCCCC2)cc1`, for which the “% Inhibition @ 10 uM” value is on record as -2.87%. On to `COc1ccc([C@H]2[C@H](C(=O)OC)[C@H](c3ccc(OC)cc3)[C@H]2C(=O)OC)cc1`, for which the “% Inhibition @ 10 uM” value is given as -3.65%. For `Cc1cccc(-n2cnc3cc(C(=O)NCc4ccc(F)cc4)ccc32)c1`, the “% Inhibition @ 10 uM” value was -0.256%. `COc1ccc2oc3cc(C)nc(-c4ccccc4)c3c2c1`: the “% Inhibition @ 10 uM” value is given as -2.99%. Next, `CN(Cc1cnn(-c2ccccc2)c1)S(=O)(=O)c1ccc(-c2cc(C(F)(F)F)no2)s1`: 1.05%; `CCC1CCCCN1C(=O)c1cc(Cl)ccc1NC(=O)c1ccco1` (centres unmarked): -3.49%. With `CC(C)C[C@H](NC(=O)OCc1ccccc1)C(=O)N[C@@H](Cc1ccccc1)C(=O)C[N+](=O)[O-]`, the “% Inhibition @ 10 uM” value is listed as 0.744%.

Consider `CC(NC(=O)C1CCCN(S(=O)(=O)N2CCCCC2)C1)C12CC3CC(CC(C3)C1)C2` (centres unmarked), for which the “% Inhibition @ 10 uM” value is reported as 0.0525%.

For `CC1=C(C(=O)N2C(C)CCCC2C)C2(CCC(C)CC2)OC1=O` (centres unmarked), the “% Inhibition @ 10 uM” value was determined as 1.55%. For `Cc1nccn1CCCNC(=O)c1nc(-c2ccc3c(c2)OCO3)no1`, the “% Inhibition @ 10 uM” value came out at 2.77%.

As to `CN(Cc1ccccc1)C(=O)c1cc(S(=O)(=O)N2CCCC2)cn1C`, the “% Inhibition @ 10 uM” value worked out at 3.36%.

Consider `c1ccc(-c2csc(Cc3c[nH]c4ccccc34)n2)cc1`, for which the “% Inhibition @ 10 uM” value amounted to 0.627%. Next, `COc1cc(OC)c(OC)cc1/C=C/C(=O)c1cc2cccc(OC)c2oc1=O`: 0.775%; `CCCOc1ccc(C2C(=O)N(C3CCC(C)CC3)CC(=O)N2Cc2ccco2)cc1OC` (centres unmarked): -2.26%. `O=S(=O)(NCCc1ccccc1)c1cc(Cl)ccc1Cl`: the “% Inhibition @ 10 uM” value is recorded as -0.856%. As to `N=C(NOS(=O)(=O)c1ccc(Cl)cc1)c1ccncc1`, the “% Inhibition @ 10 uM” value is reported as 7.86%. Turning to `Cc1cccc2c(C(=O)N3CCOCC3)cc(-c3ccccc3)nc12`, the “% Inhibition @ 10 uM” value turned out to be 1.73%. For the molecule `Cc1onc(-c2ccccc2Cl)c1C(=O)Nc1ccccc1C(N)=O`, the “% Inhibition @ 10 uM” value is reported as 4.84%. The result for `COc1ccc(OC)c(NC(=O)Cc2ccc(Cl)cc2)c1` reads -2.19%; that for `CCOc1ccccc1NC(=O)C1=C(C)NC(=O)NC1c1ccc(C)cc1` (centres unmarked), -0.69%.

Consider `CCCCCn1c(=O)c(C(=O)Nc2ccc(C)cn2)c(O)c2ccccc21`, for which the “% Inhibition @ 10 uM” value turned out to be 4.09%. As to `CCOC(=O)c1sc2ncn(CC(=O)NCCCOC)c(=O)c2c1C`, the “% Inhibition @ 10 uM” value is reported as -2.87%. Take `O=C(NCCc1ccccc1)C1CCN(Cc2cnn(-c3ccccc3)c2-n2cccc2)CC1`: the “% Inhibition @ 10 uM” value is listed as -3.08%. Next, `CC1=NN(c2ccccc2)C(=O)/C1=C\c1ccc(N2CCCCC2)cc1`: 3.83%; `CCOC(=O)/C(C#N)=C/c1c(Oc2ccc(C(C)(C)C)cc2)nc2ccccn2c1=O`: 1.19%. For `O=C(CSc1nc2sc3c(c2c(=O)n1-c1ccccc1)CCC3)NCC1CCCO1` (centres unmarked), the “% Inhibition @ 10 uM” value is given as 2.01%.

Consider `CCN1C(=O)N/C(=C\c2c(OC)ccc3ccccc23)C1=O`, for which the “% Inhibition @ 10 uM” value is -0.25%. The result for `CC(=O)Nc1ccc(CN2CCCCCCC2)cc1` reads -5.61%; that for `COc1ccc(-c2cn3c(n2)sc2cc(C(=O)NCCc4ccc(OC)c(OC)c4)ccc23)cc1`, -0.0401%; that for `CCn1c(C)c(C)c2cc(C(=O)NCc3ccc(C)o3)ccc21`, 7.74%.

In the case of `CS(=O)(=O)N(CC(=O)Nc1ccc(Br)cc1F)Cc1ccccc1`, the “% Inhibition @ 10 uM” value is -7.18%. `O=C(C[n+]1cccc(CO)c1)Nc1nc2ccccc2s1`: the “% Inhibition @ 10 uM” value was -5.07%.

As to `O=C(/C=C/c1ccccc1)N1CCN(c2ccc(Cl)cc2)CC1`, the “% Inhibition @ 10 uM” value is listed as 4.52%.

Consider `O=C(CCCn1ccc2cc(S(=O)(=O)N3CCCC3)ccc21)NCCN1CCOCC1`, for which the “% Inhibition @ 10 uM” value turned out to be 5.44%. The result for `COc1ccccc1OCc1nc(C#N)c(NCc2ccc3c(c2)OCO3)o1` reads -6.08%; that for `COc1ccc2[nH]cc(CCNC(=O)c3ccco3)c2c1`, 4.93%. Take `Cc1cc(NC(=O)c2cc(-c3ccc(F)cc3)no2)nn1CC(=O)N1CCOCC1`: the “% Inhibition @ 10 uM” value turned out to be 1.92%. `Cc1ccc(-c2noc(CCC(=O)Nc3nc4ccccc4s3)n2)cc1`: the “% Inhibition @ 10 uM” value was -4.66%. Turning to `CCS(=O)(=O)c1nc(S(=O)(=O)c2ccc(C)cc2)c(NCc2ccccc2)s1`, the “% Inhibition @ 10 uM” value was -0.522%.

With `CCN(CC)S(=O)(=O)c1cc(C(=O)O)ccc1F`, the “% Inhibition @ 10 uM” value is 1.13%.

As to `Cc1onc(-c2ccccc2Cl)c1C(=O)Nc1cc(=O)n(C)c(=O)n1C`, the “% Inhibition @ 10 uM” value was -1.36%.

Regarding `Clc1ccccc1OCc1nn2c(Cn3cnc4ccccc43)nnc2s1`, the “% Inhibition @ 10 uM” value worked out at 4.47%. Consider `COc1ccc(NC2C=CS(=O)(=O)C2)cc1` (centres unmarked), for which the “% Inhibition @ 10 uM” value is recorded as -3.92%. `NC(=O)c1ccccc1NC(=O)/C=C/C(=O)O`: the “% Inhibition @ 10 uM” value is -4.08%.

Regarding `O=C1OC(c2cncc(Br)c2)=N/C1=C\c1cccc(Cl)c1Cl`, the “% Inhibition @ 10 uM” value is 4.29%.

Consider `O=C(Nc1cccnc1)c1cc(-c2ccc(Br)cc2)on1`, for which the “% Inhibition @ 10 uM” value was -4.79%.

In the case of `CCOC(=O)c1c(-c2ccccc2)oc2ccc(OCC(=O)N(CC)CC)cc12`, the “% Inhibition @ 10 uM” value worked out at 1.16%. Turning to `CCCCOc1ccc(/C=C(\C#N)c2nc(-c3ccc(OC)cc3OC)cs2)cc1`, the “% Inhibition @ 10 uM” value was found to be 2.7%. Next, `CC(C)(C)CC(=O)Nc1ccc(C(N)=O)cc1`: 2.86%; `CC(=O)c1ccc2c(c1)OCCOCCOCCOCCOCCO2`: -0.968%; `O=C(NCCCN1CCC(Cc2ccccc2)CC1)c1cc2ccc3cccnc3c2[nH]1`: -1.79%.

In the case of `Cc1ccc(OCc2nc(-c3ccc(-n4cccc4)cc3)no2)cc1C`, the “% Inhibition @ 10 uM” value turned out to be 2.16%. `COc1ccc(OC)c(/C=C(\C#N)c2nc(-c3ccccc3)cs2)c1`: the “% Inhibition @ 10 uM” value was -3.26%. Turning to `COc1ccc(C(c2cc(Cl)c3cccnc3c2O)N2CCN(C)CC2)cc1` (centres unmarked), the “% Inhibition @ 10 uM” value was determined as 33.6%. Next, `COc1cc(S(=O)(=O)Nc2ccncc2)c(OC)cc1Cl`: -3.01%. The result for `O=C(NCCN1CCC(Cc2ccccc2)CC1)C1CC(=O)N(CCc2ccccc2)C1` (centres unmarked) reads -1.79%.

Take `O=S(=O)(Nc1cccc(Cl)c1Cl)c1cc(Cl)ccc1Cl`: the “% Inhibition @ 10 uM” value is listed as 2.46%. As for `COc1ccc(OCc2nnc3n2N=C(c2ccc(OC)cc2)CS3)cc1`, the “% Inhibition @ 10 uM” value is on record as 3.25%. Next, `CC12CNCC(C)(CN(Cc3ccc(Br)cc3)C1)C2`: -7.54%; `CCN(CC)C(=O)/C(=C\c1ccc(F)cc1)NC(=O)c1ccccc1`: -6.03%; `Cc1ccc(-n2nc3c(=O)n(CC(=O)N4CCN(c5ccccn5)CC4)nc(C)c3c2C)cc1`: 6.42%. Take `Cc1ccc(C2C(C(=O)c3ccc(Br)cc3)=C(O)C(=O)N2CCOCCO)cc1` (centres unmarked): the “% Inhibition @ 10 uM” value turned out to be 3.24%. As to `CCOc1ccc(-c2ncnn2-c2ccc(Br)cc2F)cc1`, the “% Inhibition @ 10 uM” value was -5.68%. Regarding `O=C(NC1CCCCCCC1)c1cccnc1`, the “% Inhibition @ 10 uM” value is -0.687%. For the molecule `Cc1ccc(N2C(=O)CC(NC3CCCC3)C2=O)cc1` (centres unmarked), the “% Inhibition @ 10 uM” value worked out at 0.673%. The result for `CCCCN(CC)C(=O)c1noc2c1COc1ccccc1-2` reads -1.72%; that for `O=C(Nc1ccc(-c2cn3ccsc3n2)cc1)c1cccc(Br)c1`, 1.37%; that for `Cc1ccc2nc(NCCN3CCOCC3)c3nnnn3c2c1`, 3%.

Consider `COc1ccccc1C1=NOC(Cn2c(=O)c3c(ncn3C)n(C)c2=O)C1` (centres unmarked), for which the “% Inhibition @ 10 uM” value worked out at 0.221%. `CC1CCCC(NC(=O)C2c3ccccc3C(=O)N2C(C)c2ccccc2)C1C` (centres unmarked): the “% Inhibition @ 10 uM” value is on record as 0.387%. Take `COc1cc2c(cc1OC)C(c1ccccc1)NC(=O)C2` (centres unmarked): the “% Inhibition @ 10 uM” value is given as 3.16%. Take `SC1=Nc2ccccc2SC(c2ccccc2)C1` (centres unmarked): the “% Inhibition @ 10 uM” value is recorded as -3.04%. For the molecule `O=C(C1=C(C(F)(F)F)Nc2ncnn2C1c1ccc(Cl)cc1)c1cccs1` (centres unmarked), the “% Inhibition @ 10 uM” value was -0.403%. Next, `C=CCN1C(=O)c2n[nH]c(-c3c(C)cc(C)cc3O)c2C1c1ccccc1F` (centres unmarked): 4.83%; `CCCc1nc(-c2ccccc2O)n(-c2ccccc2)n1`: -0.865%.

For the molecule `CCCNC(=O)c1cnn(-c2cccc(Cl)c2)c1C1CCN(C(=O)OC(C)(C)C)CC1`, the “% Inhibition @ 10 uM” value turned out to be 8.83%.
